# In the supplement of paper PMC3334620:
# Over roughly 33,000 sequences, “E-score (-0.5 to 0.5)” has its median near -0.054; the highest 2% begin near 0.35. The list shows a part of the results.
# Biological target: T1, Stb5 (UniProt P38699)
# T1 sequence: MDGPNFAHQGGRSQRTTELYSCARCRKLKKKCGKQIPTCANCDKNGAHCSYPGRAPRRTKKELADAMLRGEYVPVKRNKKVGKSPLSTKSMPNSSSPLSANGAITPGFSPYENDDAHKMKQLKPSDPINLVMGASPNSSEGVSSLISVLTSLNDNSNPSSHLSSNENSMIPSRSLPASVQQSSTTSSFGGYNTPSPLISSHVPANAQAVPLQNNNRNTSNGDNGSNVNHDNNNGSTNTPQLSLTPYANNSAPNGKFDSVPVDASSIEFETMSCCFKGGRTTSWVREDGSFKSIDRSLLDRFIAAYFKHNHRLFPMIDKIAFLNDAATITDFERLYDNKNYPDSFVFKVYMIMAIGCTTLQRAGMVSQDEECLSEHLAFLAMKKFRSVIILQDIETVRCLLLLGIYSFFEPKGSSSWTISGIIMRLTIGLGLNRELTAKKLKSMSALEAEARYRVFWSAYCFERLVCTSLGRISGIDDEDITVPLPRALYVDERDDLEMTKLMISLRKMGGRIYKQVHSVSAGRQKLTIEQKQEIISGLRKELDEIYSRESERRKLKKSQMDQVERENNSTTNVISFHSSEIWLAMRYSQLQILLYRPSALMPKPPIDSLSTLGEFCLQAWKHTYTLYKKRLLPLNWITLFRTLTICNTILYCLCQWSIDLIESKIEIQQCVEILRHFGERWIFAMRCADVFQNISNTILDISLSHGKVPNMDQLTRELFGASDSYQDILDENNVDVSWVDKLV
# Experiment: PBM E-score (8-mer binding enrichment) (E-score (-0.5 to 0.5)); higher = stronger / more preferred TF binding; most listed sequences are background and not binding sites
# Details: protein concentration: 200 nM; construct: GST-full length
# Procedure, shortened: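 GST-tagged yeast TFs (full-length or DNA-binding domain) were made by PURExpress in vitro transcription/translation and applied at about 100-200 nM to universal all-10-mer Agilent arrays. The arrays were made double-stranded by primer extension, on fresh or once-stripped slides. Bound protein was detected with fluorescent anti-GST, and scans were normalised with masliner. Each ungapped eight-base word, pooled with its reverse complement, received an E-score (modified Wilcoxon-Mann-Whitney statistic) from the Universal PBM Analysis Suite.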
row,Sequence,PBM E-score
1,GCAAACCC,0.0735
2,GTAAGGGA,-0.0267
3,AAACGGGT,0.205
4,CCTATAGG,0.0695
5,CTTGCTGA,-0.196
6,CACCGCCC,0.41
7,CGCGAGTC,-0.00594
8,CGAGTGTA,-0.108
9,ACACGGAT,0.0865
10,CTAGGACA,-0.135
11,ACAATACT,-0.0818
12,AAGCTTCA,-0.233
13,GAAACATA,-0.0451
14,AGGATGTC,-0.0421
15,CTGGCGGA,0.119
16,CGATGACA,0.0876
17,CTAGCCCA,-0.109
18,ATCAGCTA,-0.203
19,AGGACCTG,-0.165
20,CGCTCACA,0.0488
21,AGTTCAGA,-0.328
22,ATAGACGA,-0.0558
23,CCATGAAG,-0.0734
24,GCGCGCCC,-0.0714
25,GCGCACTA,0.0832

row,Sequence,PBM E-score
1,CTACAACA,-0.124
2,ACTATTGC,0.179
3,AAGTGAAA,-0.183
4,CCGTAACG,0.21
5,TCAGGAGA,-0.131
6,GGAGAGCC,-0.0532
7,AACGTGTC,-0.241
8,GAGGTAAA,0.0598
9,GAGGGAAC,0.0254
10,ACGGTATA,0.222
11,ATCCTGCC,-0.131
12,ACGTTGGG,-0.173
13,GCTTACAC,-0.00172
14,CCGCTCAC,0.269
15,GGAACAAC,0.13
16,CCGTTTGA,0.28
17,CCGTCTGA,0.155
18,ACTTAAGA,0.15
19,ACAATAGC,-0.175
20,GTGCGGCA,0.17
21,CGCCTTGC,-0.0758
22,AGGATTTG,-0.124
23,TGACGTAA,-0.159
24,ACCCAGAA,-0.129
25,AGGACTAC,-0.13

row,Sequence,PBM E-score
1,AAATTAGG,-0.142
2,ATCCCTGC,-0.0751
3,AATAATTC,0.127
4,ATAATGAA,-0.076
5,CAGGCACC,0.033
6,ATTTAGGA,-0.0827
7,AAGAGTCC,0.118
8,GCCTCTGA,-0.173
9,CTCGTCAG,-0.202
10,ACATGCCA,-0.128
11,CCGCTCTC,0.23
12,GACCAGAC,-0.106
13,CGGTCCCC,0.114
14,ACGCGGAG,0.199
15,AGGAGATA,0.147
16,GGGCCGTA,0.24
17,CGTCTTAG,-0.0432
18,ATAGCAGG,-0.055
19,CGCTGTAG,-0.0143
20,AACTCAGG,-0.237
21,GTCGCCAA,-0.0812
22,GAATTTAA,0.0497
23,TCACAACA,-0.0667
24,CACCAACA,-0.179
25,AAGAACTA,-0.0107

row,Sequence,PBM E-score
1,AGTGGCTC,-0.171
2,CATCTGTA,-0.106
3,AGGTACAG,-0.12
4,TAGAAACA,-0.188
5,TCGAGTCA,-0.0428
6,GATATTGA,0.0444
7,CGTCTGGC,0.029
8,CTACGCAG,-0.147
9,GCTGTAAA,-0.254
10,ATCGCAGC,-0.0733
11,AGGCTCCG,0.246
12,CCGGCAGC,0.217
13,ATACACAA,-0.134
14,AAACGGGG,0.327
15,GGGGGAGA,-0.0232
16,GCTAGGCA,-0.0388
17,ACACCTTC,0.103
18,AGCCGCGG,0.332
19,AGGACGGC,0.215
20,ATTCGACA,-0.133
21,TACAGCAA,-0.0577
22,AACCCTTA,-0.147
23,AACTGAAC,-0.0784
24,CGGGTTCC,0.128
25,AGGAAGGA,-0.407

row,Sequence,PBM E-score
1,CATAAAAC,0.0257
2,CCAGCTGA,-0.269
3,ATATGACA,-0.228
4,ATGTTGGG,-0.0312
5,CATGGCGA,-0.197
6,CTACCACA,-0.14
7,CCGCCTGC,0.223
8,CCACTCAA,-0.218
9,AAACGGCC,0.225
10,CCTGGAAA,-0.145
11,CGGGTTGA,0.128
12,TACGCGTA,-0.0195
13,GTGGAGAA,-0.104
14,CCTTCGCA,-0.187
15,GCTACCTA,-0.175
16,ACTACGAA,-0.249
17,GTTCCCTA,0.00145
18,GTGATGCA,-0.167
19,ACATCCGT,0.275
20,ATGGCTGG,-0.215
21,CCGGGGTC,0.338
22,ATCAAGGC,-0.0377
23,ACGCAACA,-0.084
24,GATCACCA,-0.108
25,CTCAGCAC,-0.252

row,Sequence,PBM E-score
1,CACCAGCA,-0.239
2,CCCCTCGC,-0.318
3,AATGCAGA,-0.231
4,CGTTCGAA,0.0218
5,GCTGATAA,0.181
6,GGACTACA,0.0839
7,CGGAAAAC,-0.078
8,CATAGATC,0.0237
9,TGGTGTAA,-0.0808
10,AAACTACG,0.0163
11,AACTAAAA,0.0936
12,CACTCCCA,-0.126
13,CGCATGAG,-0.19
14,AACGTATA,-0.0377
15,ATTCGTCG,0.0151
16,ATTACAAT,0.0184
17,TCTTGTCA,-0.252
18,AACGTCCG,0.375
19,GATCACTA,-0.0631
20,CGATAATA,0.115
21,TAAATTTA,-0.00595
22,AGTCCGCA,0.323
23,CGTCCGTC,0.21
24,CTTCGTCC,-0.0995
25,GAGCGGTA,0.316

row,Sequence,PBM E-score
1,ACAAAAGA,-0.0623
2,TAAAGCGA,0.0848
3,ATGGGTAC,-0.34
4,CACGATGC,-0.0434
5,AGTTTAGG,-0.149
6,AACCATCT,-0.115
7,AAGCTGAA,-0.152
8,GGAGCACC,0.0397
9,ATCGAGTG,-0.132
10,ACTTGCCG,0.0296
11,CTGACAAC,-0.132
12,AGTATGGC,-0.0165
13,ATCAGGAC,-0.214
14,AGGTTTCG,-0.179
15,ATCGCCGC,0.385
16,GTCCGCGA,0.266
17,AAGGTGCC,0.0693
18,GAGAATGA,-0.26
19,ACGGCTTC,0.091
20,GGCCTCCA,0.0474
21,GTTGATAA,-0.173
22,CTGCAGCC,-0.218
